Laboratory results as given in PubChem BioAssay AID624417 (National Center for Advancing Translational Sciences (NCATS), 2012).
Hit rate of the full screen: of about 410,000 compounds, about 6,400 (1.6%) were called active. Inconclusive means that the source gave no clear call. Such entries were picked first, then a sample of the others. Calls come from the whole dose curve; as a rule, active = well fitted inhibition curve with a large enough effect; inconclusive = small, poorly fitted or top-dose-only effect; inactive = no such curve, though single readings can be large or run the other way. Potencies of inconclusive entries are left out as doubtful fits.

molecular target: Glucagon-like peptide 1 receptor (Homo sapiens) (UniProt P43220); assay: qHTS of GLP-1 Receptor Inverse Agonists (Inhibition Mode); settings: HEK293 GLP-1R CRE-luciferase, luminescence, 24 h; Potency: GLP-1R form is constitutively active unless noted; series mostly up to 38.3 µM; note: nearly all actives have a fitted effect of over 55% in size
Sequence of UniProt P43220 (P43220 whole entry, looked up): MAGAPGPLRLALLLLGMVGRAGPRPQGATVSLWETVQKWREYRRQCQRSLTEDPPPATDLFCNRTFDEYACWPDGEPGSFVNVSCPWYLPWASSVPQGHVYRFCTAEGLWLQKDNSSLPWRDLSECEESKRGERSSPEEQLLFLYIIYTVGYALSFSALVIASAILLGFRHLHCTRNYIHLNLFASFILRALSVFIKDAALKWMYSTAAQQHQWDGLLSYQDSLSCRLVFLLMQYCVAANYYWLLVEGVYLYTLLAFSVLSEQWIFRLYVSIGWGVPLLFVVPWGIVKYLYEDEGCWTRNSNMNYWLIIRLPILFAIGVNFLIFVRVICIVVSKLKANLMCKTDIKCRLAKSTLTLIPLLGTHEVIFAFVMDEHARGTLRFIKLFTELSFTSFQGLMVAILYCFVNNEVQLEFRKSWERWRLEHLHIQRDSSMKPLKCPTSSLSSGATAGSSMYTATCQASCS
Procedure, shortened: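 Constitutively active GLP-1R drives a cAMP-responsive luciferase in stably transfected HEK293 cells; test compounds are added after overnight (12 h) attachment and left 24 hr, and signal loss in luminescence marks inhibition.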
Potency is the fitted concentration of half-maximal effect; tags give direction and shape of the fitted curve.

Row | SMILES | Potency
1 | COC(=O)c1cccc(NC(=O)c2ccc(S(=O)(=O)N(C)c3ccccc3OC)cc2)c1 | inconclusive [inhibitor, single point]
2 | Cc1cccc(N2CCN(CCc3ccccc3)CC2)c1C | inconclusive [inhibitor, partial curve, poor fit]
3 | COC1C(O)C(C)OC(OC2C(Oc3cccc4c(O)c5c(=O)oc6ccc(C)c7c(=O)oc(c34)c5c67)OC(C)C(O)C2O)C1O (centres undefined) | inconclusive [inhibitor, single point]
4 | CCOc1ccccc1CN1CCCC(C(=O)c2cc(F)ccc2F)C1 (centres undefined) | inconclusive [inhibitor, single point]
5 | COc1ccc(/C=N\NC(=O)c2cccc(F)c2)cc1COc1ccccc1 | inconclusive [inhibitor, full curve, poor fit]
6 | O=P(Oc1ccccc1)(Oc1ccccc1)N1CCN(c2ccc(F)cc2)CC1 | inconclusive [inhibitor, partial curve, poor fit]
7 | CN(C(=O)c1cccc(NC(=O)Cc2cccc([N+](=O)[O-])c2)c1)C1CCCCC1 | inconclusive [inhibitor, partial curve, poor fit]
8 | Brc1ccccc1CNCCc1ccc2c(c1)OCO2 | inconclusive [inhibitor, single point]
9 | O=C(CN1C(=O)CN=C(c2ccccc2Cl)c2cc(Cl)ccc21)NCc1ccco1 | inconclusive [inhibitor, partial curve]
10 | O=C1NC(=O)N(Cc2ccccc2Cl)C(=O)/C1=C/c1cccs1 | inactive
11 | CN1CCC(OC(=O)c2ccccc2)CC1 | inconclusive [inhibitor, partial curve, poor fit]
12 | CCOC(=O)C1(c2ccccc2)CCN(CCC(=O)Nc2ccccc2OC)CC1 | inconclusive [inhibitor, partial curve, poor fit]
13 | O=C(C1CC(c2ccccc2O)=NO1)N1CCC2(CC1)OCCO2 (centres undefined) | inconclusive [inhibitor, partial curve, poor fit]
14 | CCCn1c(C(=O)c2ccc(OC)cc2)nc2ccccc21 | inconclusive [inhibitor, partial curve, poor fit]
15 | N#Cc1ccc(NC(=O)CN2CCCCCC2)cc1Cl | inconclusive [inhibitor, single point]
16 | O=C1NC(=O)C(CCc2ccncc2)(Cc2ccc3c(c2)OCO3)C(=O)N1CCc1ccccc1 (centres undefined) | inactive
17 | O=[N+]([O-])c1ccc(S(=O)(=O)NCC(c2ccco2)N2CCc3ccccc3C2)cc1 (centres undefined) | inconclusive [inhibitor, single point]
18 | CS(=O)(=O)c1ccc(C2=C(CNC(=O)c3ccc([N+](=O)[O-])cc3)[C@H]3CC[C@@H](C2)N3Cc2ccccc2)cc1 | inactive
19 | c1ccc2c(c1)CSc1ccccc1N2 | inconclusive [inhibitor, partial curve, poor fit]
20 | CN(C(=O)c1ccco1)C1(c2ccccc2Cl)CCCCC1=O (centres undefined) | inactive

Row | SMILES | Potency
21 | COC(=O)c1cn(CCOc2ccccc2)c2ccccc12 | inconclusive [inhibitor, single point]
22 | CC(C)c1ccc(N2C(=O)NC(=O)/C(=C/C=C/c3ccco3)C2=O)cc1 | inactive
23 | COC(=O)C1=C(c2ccc(OCc3ccccc3)cc2)C[C@@H]2CC[C@H]1N2C(=O)NCc1ccc2c(c1)OCO2 | inconclusive [inhibitor, partial curve, poor fit]
24 | COc1ccc(C2NCc3ccc4c(c3-n3cccc32)OCO4)cc1OC (centres undefined) | inconclusive [inhibitor, single point]
25 | O=c1[nH]c2ccccc2n1C1CCN(CCCC(c2ccc(F)cc2)c2ccc(F)cc2)CC1 | inconclusive [inhibitor, partial curve, poor fit]
26 | CCOC(=O)[C@]12Cc3cc(C)ccc3[C@H]1N(C(C)C)C(=O)c1ccccc12 | inconclusive [inhibitor, single point]
27 | O=C1C2CCN(CC2)C1Cc1ccc(OCc2ccccc2)cc1 (centres undefined) | inconclusive [inhibitor, single point]
28 | CCC(C)N1C(=O)/C(=C\c2cc3c4c(c2)CCCN4CCC3)C(=O)NC1=S (centres undefined) | inactive
29 | CCCCc1ccc(NC2=NCCCS2)cc1 | inconclusive [inhibitor, partial curve, poor fit]
30 | COc1cccc(NC(=O)N2CCC3(CC2)OCCO3)c1 | inactive
31 | Cc1cc(/C=C2\C(=O)NC(=O)N(c3ccccc3F)C2=O)c(C)n1-c1cc(C(=O)O)cc(C(=O)O)c1 | inactive
32 | Cc1cccc(C2=NN(c3ccc(Br)cc3)[C@@H](C(=O)N3CCOC3=O)[C@@H]2c2ccc([N+](=O)[O-])cc2)c1 | inconclusive [inhibitor, partial curve, poor fit]
33 | CCN(CC)S(=O)(=O)c1ccc(C(=O)NC(=S)N2CCN(c3ccccc3O)CC2)cc1 | inconclusive [inhibitor, partial curve, poor fit]
34 | C=CCOC(Cn1ccnc1)c1ccc(Cl)cc1Cl (centres undefined) | inconclusive [inhibitor, single point]
35 | CN1CCN(C(=O)COc2ccc(C(C)(C)C)cc2Br)CC1 | inconclusive [inhibitor, single point]
36 | COc1ccc(OC)c(NC(=O)Cn2cc(C(=O)c3ccccc3F)c3ccccc32)c1 | inconclusive [inhibitor, full curve, poor fit]
37 | Brc1ccc2c(c1)C(OC1CN3CCC1CC3)c1ccccc1CS2 (centres undefined) | inconclusive [inhibitor, partial curve, poor fit]
38 | O=C(N/N=C/c1c(O)n(-c2cccc3ccccc23)c(=O)[nH]c1=O)c1ccncc1 | inactive
39 | Cc1ccc(NC(=O)c2ccc(C)c(S(=O)(=O)N3CCCCC3)c2)nc1 | inconclusive [inhibitor, single point]
